In the supplement of paper PMC12217912:
Some of the results follow. The full chains were built here from the parent and the listed change. Inactive controls read about 0.05.

B1: TEV protease; numbered along this chain (parent)
chain: MGESLFKGPRDYNPISSSICHLTNESDGHTTSLYGIGFGPFIITNKHLFRRNNGTLVVQSLHGVFKVKDTTTLQQHLVDGRDMIIIRMPKDFPPFPQKLKFREPQREERICLVTTNFQTKSMSSMVSDTSCTFPSGDGIFWKHWIQTKDGQCGSPLVSTRDGFIVGIHSASNFTNTNNYFTSVPKNFMELLTNQEAQQWVSGWRLNADSVLWGGHKVFMVKPEEPFQPVKEATQL

Variants of: B1
Assay: raw area under fraction-flipped curve 0-4 h after induction (AUC4h, not background-subtracted), DNA-recorder readout of cleavage of the substrate (dimensionless); higher = more cleavage of the substrate by the protease variant
Conditions: temperature: 34 °C; time window: 0-4 h after rhamnose induction
Procedure: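 In vivo DNA recorder in E. coli TOP10(DE3) ΔrhaA at 34 °C. Each TEVp single-site mutant (parent TEVp 0) is paired with a single-site variant of the 7-mer TEVs (canonical ENLYFQ|S). The substrate sits between flexible linkers in a Bxb1-sfGFP-TEVs-SsrA fusion, so cleavage stabilises Bxb1 and speeds flipping of a recombination array, read by NGS. The value is the raw area under the fraction-flipped curve over 0-4 h after rhamnose induction (AUC4h), with ≥20 reads per time point. It is not background-subtracted; inactive controls average about 0.047.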
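Further: Bxb1 expression induced with 0.2% (w/v) L-rhamnose at OD600 near 0.5, cultures sampled hourly, flipped fraction per protease–substrate barcode pair counted by paired-end Illumina sequencing.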

Variant	area with substrate ENLYFQA	area with substrate ENLYFQC	area with substrate ENLYFQD	area with substrate ENLYFQF	area with substrate ENLYFQG	area with substrate ENLYFQI	area with substrate ENLYFQK	area with substrate ENLYFQL	area with substrate ENLYFQM	area with substrate ENLYFQN	area with substrate ENLYFQP	area with substrate ENLYFQS	area with substrate ENLYFQT	area with substrate ENLYFQW	area with substrate ENLYFQY	area with substrate ENLYFQR	area with substrate ENLYFQH	area with substrate ENLYFQQ	area with substrate ENLYFQV	area with substrate ENLYFQE
MGESLFKGPRDYNPISSSICHLTNSSDGHTTSLYGIGFGPFIITNKHLFRRNNGTLVVQSLHGVFKVKDTTTLQQHLVDGRDMIIIRMPKDFPPFPQKLKFREPQREERICLVTTNFQTKSMSSMVSDTSCTFPSGDGIFWKHWIQTKDGQCGSPLVSTRDGFIVGIHSASNFTNTNNYFTSVPKNFMELLTNQEAQQWVSGWRLNADSVLWGGHKVFMVKPEEPFQPVKEATQL [E25S]	0.112	0.105	0.106	0.121	0.11	0.056	0.0652	0.0609	0.115	0.0756	0.0438	0.107	0.0749	0.0733	0.0936					
MGESLFKGPRDYNPISSSICHLTNESEGHTTSLYGIGFGPFIITNKHLFRRNNGTLVVQSLHGVFKVKDTTTLQQHLVDGRDMIIIRMPKDFPPFPQKLKFREPQREERICLVTTNFQTKSMSSMVSDTSCTFPSGDGIFWKHWIQTKDGQCGSPLVSTRDGFIVGIHSASNFTNTNNYFTSVPKNFMELLTNQEAQQWVSGWRLNADSVLWGGHKVFMVKPEEPFQPVKEATQL [D27E]	0.123		0.0671		0.105		0.064	0.015	0.0974	0.0548		0.105	0.0603	0.0659	0.0906	0.0542				
MGESLFKGPRDYNPISSSICHLTNESDYHTTSLYGIGFGPFIITNKHLFRRNNGTLVVQSLHGVFKVKDTTTLQQHLVDGRDMIIIRMPKDFPPFPQKLKFREPQREERICLVTTNFQTKSMSSMVSDTSCTFPSGDGIFWKHWIQTKDGQCGSPLVSTRDGFIVGIHSASNFTNTNNYFTSVPKNFMELLTNQEAQQWVSGWRLNADSVLWGGHKVFMVKPEEPFQPVKEATQL [G28Y]	0.0672	0.0819				0.0502		0.0475	0.0651	0.0514	0.0465	0.0825				0.0558	0.049	0.0474		
MGESLFKGPRDYNPISSSICHLTNESDGHTISLYGIGFGPFIITNKHLFRRNNGTLVVQSLHGVFKVKDTTTLQQHLVDGRDMIIIRMPKDFPPFPQKLKFREPQREERICLVTTNFQTKSMSSMVSDTSCTFPSGDGIFWKHWIQTKDGQCGSPLVSTRDGFIVGIHSASNFTNTNNYFTSVPKNFMELLTNQEAQQWVSGWRLNADSVLWGGHKVFMVKPEEPFQPVKEATQL [T31I]	0.152	0.12	0.0502		0.104		0.0651	0.0635		0.0598	0.0463	0.103		0.0389		0.0706		0.064	0.0638	
MGESLFKGPRDYNPISSSICHLTNESDGHTTSDYGIGFGPFIITNKHLFRRNNGTLVVQSLHGVFKVKDTTTLQQHLVDGRDMIIIRMPKDFPPFPQKLKFREPQREERICLVTTNFQTKSMSSMVSDTSCTFPSGDGIFWKHWIQTKDGQCGSPLVSTRDGFIVGIHSASNFTNTNNYFTSVPKNFMELLTNQEAQQWVSGWRLNADSVLWGGHKVFMVKPEEPFQPVKEATQL [L33D]	0.0567	0.0707		0.0697	0.0563	0.0592	0.0506	0.0503	0.0576			0.0624		0.0557	0.0498		0.0609	0.0359		0.0579
MGESLFKGPRDYNPISSSICHLTNESDGHTTSLYDIGFGPFIITNKHLFRRNNGTLVVQSLHGVFKVKDTTTLQQHLVDGRDMIIIRMPKDFPPFPQKLKFREPQREERICLVTTNFQTKSMSSMVSDTSCTFPSGDGIFWKHWIQTKDGQCGSPLVSTRDGFIVGIHSASNFTNTNNYFTSVPKNFMELLTNQEAQQWVSGWRLNADSVLWGGHKVFMVKPEEPFQPVKEATQL [G35D]	0.0492				0.046		0.0433			0.0412		0.0442								
MGESLFKGPRDYNPISSSICHLTNESDGHTTSLYTIGFGPFIITNKHLFRRNNGTLVVQSLHGVFKVKDTTTLQQHLVDGRDMIIIRMPKDFPPFPQKLKFREPQREERICLVTTNFQTKSMSSMVSDTSCTFPSGDGIFWKHWIQTKDGQCGSPLVSTRDGFIVGIHSASNFTNTNNYFTSVPKNFMELLTNQEAQQWVSGWRLNADSVLWGGHKVFMVKPEEPFQPVKEATQL [G35T]	0.0499					0.046		0.0399		0.0613		0.0455	0.0384		0.0463	0.0382			0.0404	
MGESLFKGPRDYNPISSSICHLTNESDGHTTSLYVIGFGPFIITNKHLFRRNNGTLVVQSLHGVFKVKDTTTLQQHLVDGRDMIIIRMPKDFPPFPQKLKFREPQREERICLVTTNFQTKSMSSMVSDTSCTFPSGDGIFWKHWIQTKDGQCGSPLVSTRDGFIVGIHSASNFTNTNNYFTSVPKNFMELLTNQEAQQWVSGWRLNADSVLWGGHKVFMVKPEEPFQPVKEATQL [G35V]	0.046				0.0486	0.0442	0.0487		0.0558			0.0459	0.0796	0.0349						
MGESLFKGPRDYNPISSSICHLTNESDGHTTSLYGICFGPFIITNKHLFRRNNGTLVVQSLHGVFKVKDTTTLQQHLVDGRDMIIIRMPKDFPPFPQKLKFREPQREERICLVTTNFQTKSMSSMVSDTSCTFPSGDGIFWKHWIQTKDGQCGSPLVSTRDGFIVGIHSASNFTNTNNYFTSVPKNFMELLTNQEAQQWVSGWRLNADSVLWGGHKVFMVKPEEPFQPVKEATQL [G37C]	0.101					0.0341			0.0811			0.106				0.0558				
